# According to PMC9911399, “Two distinct binding modes provide the RNA-binding protein RbFox with extraordinary sequence specificity”:
# Positions count from the first letter of the chain named. This is one part of the list.
# T1: RBFOX1 RRM RbFoxmut (Fox-RRM*) (Homo sapiens, UniProt Q9NWB1 109-208, R118D;E147R;N151S;E152T)
# T1 sequence: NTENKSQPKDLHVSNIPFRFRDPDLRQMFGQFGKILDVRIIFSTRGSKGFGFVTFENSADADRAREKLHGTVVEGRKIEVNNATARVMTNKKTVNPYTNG
# B1: UGUACCC (DNA:RNA)
# RNA: GGGAGACCGGAAUUCAGAUUGUCCUGUACCCUUAAAUCCCGUCGUAGCCACCA
# DNA 1: CAATCTGAATTCCGGTCTCCC
# DNA 2: TGGTGGCTACGACGGGATT
# B2: AGUUAAU (DNA:RNA)
# RNA: B1 RNA with U25A, A28U, C29A, C30A, C31U
# DNA 1: CAATCTGAATTCCGGTCTCCC
# DNA 2: TGGTGGCTACGACGGGATT
# B3: UUGUAAG (DNA:RNA)
# RNA: B1 RNA with G26U, U27G, A28U, C29A, C30A, C31G
# DNA 1: CAATCTGAATTCCGGTCTCCC
# DNA 2: TGGTGGCTACGACGGGATT
# B4: UUCGAUA (DNA:RNA)
# RNA: B1 RNA with G26U, U27C, A28G, C29A, C30U, C31A
# DNA 1: CAATCTGAATTCCGGTCTCCC
# DNA 2: TGGTGGCTACGACGGGATT
# B5: UCGGACG (DNA:RNA)
# RNA: B1 RNA with G26C, U27G, A28G, C29A, C31G
# DNA 1: CAATCTGAATTCCGGTCTCCC
# DNA 2: TGGTGGCTACGACGGGATT
# B6: GGGCUGU (DNA:RNA)
# RNA: B1 RNA with U25G, U27G, A28C, C29U, C30G, C31U
# DNA 1: CAATCTGAATTCCGGTCTCCC
# DNA 2: TGGTGGCTACGACGGGATT
# B7: GGUACGG (DNA:RNA)
# RNA: B1 RNA with U25G, C30G, C31G
# DNA 1: CAATCTGAATTCCGGTCTCCC
# DNA 2: TGGTGGCTACGACGGGATT
# B8: ACAUCGA (DNA:RNA)
# RNA: B1 RNA with U25A, G26C, U27A, A28U, C30G, C31A
# DNA 1: CAATCTGAATTCCGGTCTCCC
# DNA 2: TGGTGGCTACGACGGGATT
# B9: AAUCGCG (DNA:RNA)
# RNA: B1 RNA with U25A, G26A, A28C, C29G, C31G
# DNA 1: CAATCTGAATTCCGGTCTCCC
# DNA 2: TGGTGGCTACGACGGGATT
# B10: ACAUUUA (DNA:RNA)
# RNA: GGGAGACCGGAAUUCAGAUUGUCCACAUUUAUUAAAUCCCGUCGUAGCCACCA
# DNA 1: CAATCTGAATTCCGGTCTCCC
# DNA 2: TGGTGGCTACGACGGGATT
# B11: CGGAUAC (DNA:RNA)
# RNA: B1 RNA with U25C, U27G, C29U, C30A
# DNA 1: CAATCTGAATTCCGGTCTCCC
# DNA 2: TGGTGGCTACGACGGGATT
# B12: CUAGACA (DNA:RNA)
# RNA: B10 RNA with A25C, C26U, U28G, U29A, U30C
# DNA 1: CAATCTGAATTCCGGTCTCCC
# DNA 2: TGGTGGCTACGACGGGATT
# B13: ACCCUGG (DNA:RNA)
# RNA: B10 RNA with A27C, U28C, U30G, A31G
# DNA 1: CAATCTGAATTCCGGTCTCCC
# DNA 2: TGGTGGCTACGACGGGATT
# B14: CAAGUAG (DNA:RNA)
# RNA: B10 RNA with A25C, C26A, U28G, U30A, A31G
# DNA 1: CAATCTGAATTCCGGTCTCCC
# DNA 2: TGGTGGCTACGACGGGATT
# B15: UUGGUAU (DNA:RNA)
# RNA: B10 RNA with A25U, C26U, A27G, U28G, U30A, A31U
# DNA 1: CAATCTGAATTCCGGTCTCCC
# DNA 2: TGGTGGCTACGACGGGATT
# B16: AAGCAGG (DNA:RNA)
# RNA: B10 RNA with C26A, A27G, U28C, U29A, U30G, A31G
# DNA 1: CAATCTGAATTCCGGTCTCCC
# DNA 2: TGGTGGCTACGACGGGATT
# B17: AUUGGGC (DNA:RNA)
# RNA: B1 RNA with U25A, G26U, A28G, C29G, C30G
# DNA 1: CAATCTGAATTCCGGTCTCCC
# DNA 2: TGGTGGCTACGACGGGATT
# B18: UUGUUUC (DNA:RNA)
# RNA: B10 RNA with A25U, C26U, A27G, A31C
# DNA 1: CAATCTGAATTCCGGTCTCCC
# DNA 2: TGGTGGCTACGACGGGATT
# B19: GACCGCG (DNA:RNA)
# RNA: B1 RNA with U25G, G26A, U27C, A28C, C29G, C31G
# DNA 1: CAATCTGAATTCCGGTCTCCC
# DNA 2: TGGTGGCTACGACGGGATT
# B20: CCGUAGC (DNA:RNA)
# RNA: B10 RNA with A25C, A27G, U29A, U30G, A31C
# DNA 1: CAATCTGAATTCCGGTCTCCC
# DNA 2: TGGTGGCTACGACGGGATT
# Molecular target: T1, RBFOX1 RRM RbFoxmut (Fox-RRM*)
# Assay: EMSA; HiTS-Eq, 1 nM pool, 10 min; buffer printed only for the single-RNA assays: 10 mM Tris pH 7.5, 150 mM NaCl, 3.4 mM EDTA, 0.001% NP-40, 30 C
# Conditions: tags: His6 N-terminal (pET28a); label: 5' 32P
# Summary of the method: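 Purified wild-type or mutant RbFox RRM at increasing concentrations was equilibrated with 1 nM of 5′-radiolabelled RNA carrying 7 randomized nucleotides for 10 min in 50 µL. Unbound RNA was separated by 8% native PAGE and sequenced. Relative association constants came from read-count changes of each RNA species compared with the control reaction, normalised to the cognate motif.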
row,Binder,binding signal
1,B1,0.0834 KA relative to UGCAUGU
2,B2,0.0918 KA relative to UGCAUGU
3,B3,0.141 KA relative to UGCAUGU
4,B4,0.0965 KA relative to UGCAUGU
5,B5,0.0752 KA relative to UGCAUGU
6,B6,0.205 KA relative to UGCAUGU
7,B7,0.131 KA relative to UGCAUGU
8,B8,0.0922 KA relative to UGCAUGU
9,B9,0.0707 KA relative to UGCAUGU
10,B10,0.131 KA relative to UGCAUGU
11,B11,0.0884 KA relative to UGCAUGU
12,B12,0.0461 KA relative to UGCAUGU
13,B13,0.0978 KA relative to UGCAUGU
14,B14,0.117 KA relative to UGCAUGU
15,B15,0.181 KA relative to UGCAUGU
16,B16,0.124 KA relative to UGCAUGU
17,B17,0.0759 KA relative to UGCAUGU
18,B18,0.248 KA relative to UGCAUGU
19,B19,0.101 KA relative to UGCAUGU
20,B20,0.106 KA relative to UGCAUGU
